Reference: the RNAGym collection of RNA variant scans (doi:10.7554/elife.90254)
Read counts are not given, so values of variants with three or more changes are uncertain.

B1: LINE1-mini (parent)
chain: GGCAGAGCUCAACACAGCGUGGCAAAGUGGCUGUGGCUAGACUGCC

Variants of: B1
Test: self-cleavage, relative activity (ratio to wild type); higher = more cleavage; in vitro, sequencing; the parent is a self-cleaving ribozyme
G2U A4C G5C G33A C45G showed a self-cleavage of 0.01.
Work on G2U A4C G17U yielded a self-cleavage of 0.05.
For G2U A4C G17U G22A A41C C45A, the self-cleavage was 0.01.
Work on G2U A4G C10A G35A yielded a self-cleavage of 0.02.
With G2U A4G C18A A24C G30U the self-cleavage was 0.14.
In the case of G2U A4G C31A, the self-cleavage is reported as 0.01.
Work on G2U A4G C31G G44U yielded a self-cleavage of 0.04.
Work on G2U A4G G7U A12G C42A yielded a self-cleavage of 0.11.
G2U A4G G7U C31A showed a self-cleavage of 0.12.
For G2U A4G G17C G27C U43G, the self-cleavage was 0.01.
Work on G2U A4G G19A U38G C45U yielded a self-cleavage of 0.01.
Variant G2U A4G G21U G30U has a self-cleavage of 0.04.
For G2U A4G G30C A41C, the self-cleavage was 0.09.
G2U A4G U9A C15U G27C showed a self-cleavage of 0.11.
G2U A4U A6C showed a self-cleavage of 0.03.
In the case of G2U A4U C15U A26U G30U C37G U38A, the self-cleavage is reported as 0.05.
Work on G2U A4U G5A C18U G29A U34A C46A yielded a self-cleavage of 0.02.
G2U A4U G7C C23G showed a self-cleavage of 0.05.
With G2U A6C A12U C13A G21U A25C A41C the self-cleavage was 0.03.
In the case of G2U A6C A14U, the self-cleavage is reported as 0.03.
Variant G2U A6C A16U G33A has a self-cleavage of 0.05.
Work on G2U A6C A24C yielded a self-cleavage of 0.01.
In the case of G2U A6C C8U C31A, the self-cleavage is reported as 0.07.
G2U A6C C18G G29C showed a self-cleavage of 0.01.
With G2U A6G A11C C45U the self-cleavage was 0.01.
With G2U A6G A25C G35U the self-cleavage was 0.04.
G2U A6G C8U C10U G44C showed a self-cleavage of 0.
Variant G2U A6G C31U has a self-cleavage of 0.03.
Work on G2U A6G G7C C15U U32G yielded a self-cleavage of 0.01.
Work on G2U A6G G7U G35C yielded a self-cleavage of 0.1.
In the case of G2U A6G G21A G36A, the self-cleavage is reported as 0.01.
G2U A6G G21C G27U showed a self-cleavage of 0.19.
G2U A6G U9G A39C C42U showed a self-cleavage of 0.02.
Work on G2U A6G U34G U38C A39G C45G yielded a self-cleavage of 0.
G2U A6U A14G U20G showed a self-cleavage of 0.06.
For G2U A6U C8A, the self-cleavage was 0.03.
For G2U A6U C8G U9A C23U G44C C46U, the self-cleavage was 0.03.
G2U A6U G17A G19U G29U G40C gave a self-cleavage of 0.03.
In the case of G2U A6U U9G C10U A16G C37U G40A, the self-cleavage is reported as 0.01.
In the case of G2U A6U U20C A24U, the self-cleavage is reported as 0.13.
G2U A11C A24U A25C G33C showed a self-cleavage of 0.
G2U A11C C15G U28A C45A showed a self-cleavage of 0.
With G2U A11C C15U A25G U38C the self-cleavage was 0.
Variant G2U A11C C23A G33C G36U has a self-cleavage of 0.01.
Work on G2U A11C U28C C31G yielded a self-cleavage of 0.01.
G2U A11G G27U showed a self-cleavage of 0.03.
In the case of G2U A11U A25C, the self-cleavage is reported as 0.03.
For G2U A11U G17C G36C, the self-cleavage was 0.01.
With G2U A12C C15A G29U G33C G36C A39G the self-cleavage was 0.
G2U A12C G35A gave a self-cleavage of 0.04.
Variant G2U A12G G17A G36A U38G has a self-cleavage of 0.01.
For G2U A12G G21C A24U C31A, the self-cleavage was 0.03.
With G2U A12U G22U A26U the self-cleavage was 0.13.
For G2U A14C C23U A26U U43C G44U, the self-cleavage was 0.01.
Work on G2U A14G C15G G19A G22A G29U yielded a self-cleavage of 0.02.
With G2U A14G G19A G27A G36A A39C C45A the self-cleavage was 0.03.
G2U A14G G21U showed a self-cleavage of 0.1.
G2U A14U A16G showed a self-cleavage of 0.01.
With G2U A14U A16U the self-cleavage was 0.01.
In the case of G2U A14U G21C G33C G35U, the self-cleavage is reported as 0.01.
G2U A14U G40A gave a self-cleavage of 0.03.
G2U A16C C37A gave a self-cleavage of 0.02.
For G2U A16C G19U G30A U34A, the self-cleavage was 0.01.
In the case of G2U A16C G27U U34A, the self-cleavage is reported as 0.02.
In the case of G2U A16C G36C, the self-cleavage is reported as 0.02.
With G2U A16U A25G G27C U32C the self-cleavage was 0.04.
For G2U A24C C31U A39G, the self-cleavage was 0.
Work on G2U A24G G27A U38G yielded a self-cleavage of 0.01.
Variant G2U A24G G40A has a self-cleavage of 0.06.
G2U A24U C42G showed a self-cleavage of 0.02.
Variant G2U A24U G44A has a self-cleavage of 0.19.
In the case of G2U A24U U32C G35U, the self-cleavage is reported as 0.05.
G2U A25C G40C C46A showed a self-cleavage of 0.03.
G2U A25G C46U gave a self-cleavage of 0.04.
Work on G2U A25G G27U yielded a self-cleavage of 0.05.
G2U A26C G29C A41U showed a self-cleavage of 0.09.
Work on G2U A26C G30A C37G A41U yielded a self-cleavage of 0.01.
G2U A26G U34C G35U G36A C37A showed a self-cleavage of 0.01.
With G2U A26U G40C C42U the self-cleavage was 0.01.
In the case of G2U A39C G40A, the self-cleavage is reported as 0.05.
Work on G2U A39U U43A yielded a self-cleavage of 0.03.
For G2U C3A A14U C23U C42A, the self-cleavage was 0.25.
In the case of G2U C3A C46A, the self-cleavage is reported as 0.06.
Variant G2U C3A U32C G35C has a self-cleavage of 0.09.
G2U C3G A11U showed a self-cleavage of 0.02.
Variant G2U C3G A12U A26C A41G has a self-cleavage of 0.04.
In the case of G2U C3G A41C, the self-cleavage is reported as 0.12.
G2U C3G C8A C37U showed a self-cleavage of 0.13.
With G2U C3G C13U A14U A25G C42A the self-cleavage was 0.06.
G2U C3G C15G A24G C45U showed a self-cleavage of 0.01.
For G2U C3G C23U C31U G40C A41C C42G U43G, the self-cleavage was 0.01.
With G2U C3G G22A the self-cleavage was 0.35.
With G2U C3G G30A the self-cleavage was 0.07.
With G2U C3U A25U G27A the self-cleavage was 0.3.
Work on G2U C3U C31A G36U yielded a self-cleavage of 0.06.
With G2U C3U G5U C18U A26U the self-cleavage was 0.05.
With G2U C3U G7U A12G C13G C45G the self-cleavage was 0.02.
Work on G2U C3U G17A G21U U43G C46A yielded a self-cleavage of 0.02.
Work on G2U C3U G21C C37U yielded a self-cleavage of 0.02.
Variant G2U C3U G29A has a self-cleavage of 0.07.
With G2U C3U U9C G19U G21U G29C C31U the self-cleavage was 0.01.
In the case of G2U C8A A11U A16U A24G U32A G44U, the self-cleavage is reported as 0.01.
Variant G2U C8A G22C has a self-cleavage of 0.02.
Work on G2U C8A U9G A24C A26U yielded a self-cleavage of 0.05.
G2U C8A U28C gave a self-cleavage of 0.04.
In the case of G2U C8G A12C A25G, the self-cleavage is reported as 0.01.
In the case of G2U C8G A12U C13A, the self-cleavage is reported as 0.03.
Work on G2U C8G A26U yielded a self-cleavage of 0.04.
Work on G2U C8G C13G A24U G30U C42G yielded a self-cleavage of 0.03.
For G2U C8G C23U, the self-cleavage was 0.02.
G2U C8G G22A U38A showed a self-cleavage of 0.01.
With G2U C8G U9A U20A the self-cleavage was 0.04.
G2U C8G U20G gave a self-cleavage of 0.1.
G2U C8U A24C U43A C45A gave a self-cleavage of 0.05.
In the case of G2U C8U A25G A26U U34A G35A C42A, the self-cleavage is reported as 0.06.
G2U C8U G17C G33C showed a self-cleavage of 0.01.
Variant G2U C8U U9A G30U has a self-cleavage of 0.04.
With G2U C10A A11G the self-cleavage was 0.01.
In the case of G2U C10A A16G G27U, the self-cleavage is reported as 0.01.
G2U C10A C13G G17C G22C showed a self-cleavage of 0.01.
For G2U C10A C31A, the self-cleavage was 0.
Variant G2U C10A U32G has a self-cleavage of 0.01.
G2U C10G A11C G30U G35C C45G showed a self-cleavage of 0.
G2U C10G A14U A24U C31A G36A G44A gave a self-cleavage of 0.01.
For G2U C10G A41G G44A, the self-cleavage was 0.02.
G2U C10G G17U G33C showed a self-cleavage of 0.01.
In the case of G2U C10G G19A U28G U43C, the self-cleavage is reported as 0.01.
Variant G2U C10G G30A C31G has a self-cleavage of 0.01.
For G2U C10G G30A G33U U34A A41G C42A G44C, the self-cleavage was 0.
G2U C10G G35C showed a self-cleavage of 0.
With G2U C10G U28A U38C the self-cleavage was 0.02.
With G2U C10U A26G U28C G33A the self-cleavage was 0.01.
Work on G2U C10U A26U yielded a self-cleavage of 0.02.
For G2U C10U C18A G22C A25C, the self-cleavage was 0.
With G2U C10U C18U A26U the self-cleavage was 0.02.
With G2U C10U C31A A41U the self-cleavage was 0.01.
G2U C10U G27C gave a self-cleavage of 0.
For G2U C13A A14C G29A, the self-cleavage was 0.02.
G2U C13A C42A gave a self-cleavage of 0.1.
Variant G2U C13A G17A C18A U20C G36U has a self-cleavage of 0.06.
G2U C13A G19U U28G U43C C45U showed a self-cleavage of 0.01.
Work on G2U C13A G44U yielded a self-cleavage of 0.04.
Variant G2U C13G A14C has a self-cleavage of 0.02.
Variant G2U C13G C15G A25U G33C has a self-cleavage of 0.02.
G2U C13G C18U A39C gave a self-cleavage of 0.03.
With G2U C13G G19A the self-cleavage was 0.13.
In the case of G2U C13G G21U, the self-cleavage is reported as 0.02.
G2U C13U A14C A26C gave a self-cleavage of 0.01.
Work on G2U C13U A14C G21C G27C G30A G33A yielded a self-cleavage of 0.03.
With G2U C13U A16C C18G C42U the self-cleavage was 0.01.
For G2U C13U A24G G27A U38C, the self-cleavage was 0.06.
In the case of G2U C13U C23A C45U, the self-cleavage is reported as 0.02.
G2U C13U C31U gave a self-cleavage of 0.02.
Work on G2U C13U G17U yielded a self-cleavage of 0.19.
G2U C13U G17U G36U gave a self-cleavage of 0.1.
G2U C13U G19U C23U A39U showed a self-cleavage of 0.03.
With G2U C13U G21U C45U the self-cleavage was 0.05.
With G2U C13U U43C the self-cleavage was 0.
Work on G2U C15A C18U C31U U32G C42U G44A yielded a self-cleavage of 0.03.
In the case of G2U C15A C45U, the self-cleavage is reported as 0.03.
In the case of G2U C15A G17A C18A U28C G29U G40U, the self-cleavage is reported as 0.01.
For G2U C15A G17U G21C U38G, the self-cleavage was 0.02.
For G2U C15A G19A U43G, the self-cleavage was 0.
Variant G2U C15A U38G has a self-cleavage of 0.03.
Work on G2U C15G A16G U28G yielded a self-cleavage of 0.01.
Work on G2U C15G A25U G27A U38G yielded a self-cleavage of 0.01.
Variant G2U C15G C18A G19U has a self-cleavage of 0.05.
